# From the supplement of paper PMC4604168 (melanoma cell lines)
# The other results are listed elsewhere or left out. Single values are uncertain, as repeats are few or missing.
# Tested on: WM1716
# Assay: cell count relative to DMSO control; melanoma cells; higher = more viable cells
# Conditions: library dose: low library concentration; 72 h
# 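Also: cell number obtained by counting DAPI-stained nuclei in high-throughput microscope images with image analysis software, screen run in 1,536-well plates.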
row,SMILES,cell count [%]
1,"COc1ccc(C2=N[C@@H](c3ccc(Cl)cc3)[C@@H](c3ccc(Cl)cc3)N2C(=O)N2CCNC(=O)C2)c(OC(C)C)c1 [Nutlin-3] + O=C(Oc1ccc([N+](=O)[O-])cc1)N1CCC(C(O)(c2ccc3c(c2)OCO3)c2ccc3c(c2)OCO3)CC1 [JZL184] (first compound 0.1 µM, partner dose 1 µM)",70.6
2,"O=C(Oc1ccc([N+](=O)[O-])cc1)N1CCC(C(O)(c2ccc3c(c2)OCO3)c2ccc3c(c2)OCO3)CC1 + CCCCCCCCCCCC1=C(O)C(=O)C=C(O)C1=O [Embelin] (first compound 1 µM, partner dose 1.2 µM)",91.1
3,"COc1ccc(C2=N[C@@H](c3ccc(Cl)cc3)[C@@H](c3ccc(Cl)cc3)N2C(=O)N2CCNC(=O)C2)c(OC(C)C)c1 [Nutlin-3] + C[C@]12O[C@H](C[C@]1(O)CO)n1c3ccccc3c3c4c(c5c6ccccc6n2c5c31)CNC4=O [Lestaurtinib] (first compound 0.1 µM, partner dose 0.004 µM)",82.2
4,"Cc1cn(-c2cc(NC(=O)c3ccc(C)c(Nc4nccc(-c5cccnc5)n4)c3)cc(C(F)(F)F)c2)cn1 [nilotinib] + C[C@]12O[C@H](C[C@]1(O)CO)n1c3ccccc3c3c4c(c5c6ccccc6n2c5c31)CNC4=O [Lestaurtinib] (first compound 0.2 µM, partner dose 0.004 µM)",108
5,"COc1cc2c(Oc3ccc4[nH]c(C)cc4c3F)ncnc2cc1OCCCN1CCCC1 [cediranib] + C/C(O)=C(\C#N)C(=O)Nc1cc(Br)ccc1Br [LFM-A13] (first compound 0.4 µM, partner dose 2 µM)",102
6,"O=C(/C=C/c1cccnc1)NCCCCC1CCN(C(=O)c2ccccc2)CC1 + Cc1cc(SCc2sc(-c3ccc(C(F)(F)F)c(F)c3)nc2C)ccc1OCC(=O)O [GW0742] (first compound 0.01 µM, partner dose 2 µM)",95.1
7,"Cn1c(=O)n(-c2ccc(C(C)(C)C#N)cc2)c2c3cc(-c4cnc5ccccc5c4)ccc3ncc21 + N.N.[Cl][Pt][Cl] [cisplatin] (first compound 0.004 µM, partner dose 1.6 µM)",86.3
8,"Cc1cc(N2CCOCC2)cc2[nH]c(-c3c(NC[C@@H](O)c4cccc(Cl)c4)cc[nH]c3=O)nc12 + Cc1cc(SCc2sc(-c3ccc(C(F)(F)F)c(F)c3)nc2C)ccc1OCC(=O)O [GW0742] (first compound 0.2 µM, partner dose 2 µM)",110
9,"CCCCCCCCc1ccc(CCC(N)(CO)CO)cc1 [fingolimod] + C[As](C)SC[C@H](NC(=O)CC[C@H](N)C(=O)O)C(=O)NCC(=O)O [Darinaparsin] (first compound 2 µM, partner dose 0.4 µM)",74.7
10,"CNC(=O)c1cc(Oc2ccc(NC(=O)Nc3ccc(Cl)c(C(F)(F)F)c3)cc2)ccn1 [sorafenib] + Cc1cc(SCc2sc(-c3ccc(C(F)(F)F)c(F)c3)nc2C)ccc1OCC(=O)O [GW0742] (first compound 0.4 µM, partner dose 2 µM)",94.9
11,"CS(=O)(=O)CCNCc1ccc(-c2ccc3ncnc(Nc4ccc(OCc5cccc(F)c5)c(Cl)c4)c3c2)o1 [lapatinib] + O=C(Oc1ccc([N+](=O)[O-])cc1)N1CCC(C(O)(c2ccc3c(c2)OCO3)c2ccc3c(c2)OCO3)CC1 [JZL184] (first compound 0.8 µM, partner dose 1 µM)",98.8
12,"COc1ccc2c(c1)CCC1C2CCC2(C)C(NCCCCCCN3C(=O)C=CC3=O)CCC12 (configuration not stated) + C/C(O)=C(\C#N)C(=O)Nc1cc(Br)ccc1Br [LFM-A13] (first compound 0.4 µM, partner dose 2 µM)",82.2
